Experiment [1] concerns HSkMC (human skeletal muscle cells). The experiment can be described thus: cytotoxicity call (relative viability < 0.9). Particulars: 10 µM.
For experiment [2], the system named is HepG2. The experiment in a line: cytotoxicity call (relative viability < 0.9). To be noted: 10 µM.
In experiment [3] the test system is S. aureus RN4220. The experiment can be described thus: growth inhibition call (relative growth <= 0.2). Particulars: 50 µM.

Some of the results follow.

Take `C[C@@H]1CCCCO[C@H](CN(C)C(=O)Nc2ccc(C(F)(F)F)cc2)[C@H](C)CN([C@H](C)CO)C(=O)c2cc(N(C)C)ccc2O1`: the cytotoxicity call in experiment [1] and in experiment [2] was “inactive” throughout. Besides, the growth inhibition call in experiment [3] is “inactive”.
For `COc1ccc(S(=O)(=O)N(C)C[C@@H]2OCCCC[C@H](C)Oc3ccc(NC(=O)Nc4ccccc4)cc3C(=O)N([C@@H](C)CO)C[C@@H]2C)cc1`, the cytotoxicity call in experiment [1] and in experiment [2] was “inactive” throughout. Moreover, in experiment [3], the growth inhibition call is “inactive”.
As for `COc1ccc(S(=O)(=O)Nc2ccc3c(c2)CC(=O)N([C@@H](C)CO)C[C@@H](C)[C@H](CN(C)CC2CC2)O3)cc1`, the cytotoxicity call in experiment [1] and in experiment [2] was “inactive” in each case. Further, the growth inhibition call in experiment [3] is “inactive”.
For `C=c1[nH]/c(=C\c2ccc(F)cc2)c(=O)o1`, the cytotoxicity call in experiment [1] and in experiment [2] was “inactive” in each case. For the same compound, the growth inhibition call in experiment [3] was “inactive”.
In the case of `Cc1noc(C)c1NC(=O)N(C)C[C@H]1Oc2ccc(NS(=O)(=O)c3ccccc3)cc2C(=O)N([C@@H](C)CO)C[C@@H]1C`, the cytotoxicity call in experiment [1] and in experiment [2] was “inactive” each time. The growth inhibition call in experiment [3] is “inactive”.
For the compound `COCC(=O)NS(=O)(=O)c1ccccc1`, the cytotoxicity call in experiment [1] and in experiment [2] was “inactive” in each case. In experiment [3], the growth inhibition call is “inactive”.
Consider `O=C(C[C@@H]1CC[C@@H](NC(=O)c2cccnc2)[C@H](CO)O1)NCCN1CCCCC1`, for which the cytotoxicity call in experiment [1] and in experiment [2] was “inactive” throughout. For the same compound, the growth inhibition call in experiment [3] was “inactive”.
For `Cc1ccc(S(=O)(=O)Nc2ccc3c(c2)CC(=O)N([C@@H](C)CO)C[C@@H](C)[C@@H](CN(C)Cc2ccc(-c4ccccc4)cc2)O3)cc1`, the cytotoxicity call in experiment [1] and in experiment [2] was “active” each time. The growth inhibition call in experiment [3] was “inactive”.
Regarding `CC(C)NC(=O)N(C)C[C@H]1Oc2ccc(NC(=O)Nc3ccc4c(c3)OCO4)cc2CC(=O)N([C@H](C)CO)C[C@H]1C`, the cytotoxicity call in experiment [1] and in experiment [2] was “inactive” each time. For the same compound, the growth inhibition call in experiment [3] is “inactive”.
With `C[C@H]1CN([C@@H](C)CO)C(=O)c2cc(NC(=O)NC3CCCCC3)ccc2O[C@H]1CN(C)S(=O)(=O)c1cn(C)cn1`, the cytotoxicity call in experiment [1] and in experiment [2] was “inactive” each time. Further, the growth inhibition call in experiment [3] was “inactive”.
As for `C[C@@H]1CN([C@H](C)CO)C(=O)c2cc(NC(=O)CCCCCC(=O)Nc3ccccc3N)ccc2O[C@H]1CN(C)C(=O)Nc1ccccc1`, the cytotoxicity call in experiment [1] and in experiment [2] was “inactive” in each case. Besides, the growth inhibition call in experiment [3] was “inactive”.
Regarding `C[C@H]1CN([C@@H](C)CO)S(=O)(=O)c2ccc(C#CC3(O)CCCC3)cc2O[C@H]1CN(C)C(=O)c1cccnc1`, the cytotoxicity call in experiment [1] and in experiment [2] was “inactive” each time. Besides, in experiment [3], the growth inhibition call was “inactive”.
Take `C[C@H]1CN([C@@H](C)CO)C(=O)CCCn2cc(nn2)CO[C@@H]1CN(C)C(=O)Nc1ccc(N2CCN(C)CC2)cc1`: the cytotoxicity call in experiment [1] and in experiment [2] was “inactive” each time. Besides, the growth inhibition call in experiment [3] is “inactive”.
Regarding `COc1ccc(-c2coc3cc(O)cc(OC)c3c2=O)cc1`, the cytotoxicity call in experiment [1] and in experiment [2] was “inactive” in each case. In experiment [3], the growth inhibition call was “inactive”.
For the compound `Cc1ccc(S(=O)(=O)Nc2cccc3c2O[C@@H](CN(C)C(=O)NC(C)C)[C@@H](C)CN([C@H](C)CO)C3=O)cc1`, the cytotoxicity call in experiment [1] and in experiment [2] was “inactive” each time. Also, the growth inhibition call in experiment [3] was “inactive”.
Regarding `Cc1[nH]c(=O)c(C(=O)O)c2c1CCC2`, the cytotoxicity call in experiment [1] and in experiment [2] was “inactive” throughout. In addition, the growth inhibition call in experiment [3] was “inactive”.
`CO[C@@H]1CN(C)C(=O)c2cc(NC(=O)C3CC3)ccc2OC[C@@H](C)N(C(=O)CN2CCOCC2)C[C@@H]1C`: the cytotoxicity call in experiment [1] and in experiment [2] was “inactive” throughout. In experiment [3], the growth inhibition call is “inactive”.
With `C[C@H](CO)N1C[C@H](C)[C@H](CN(C)S(=O)(=O)c2cn(C)cn2)Oc2ccc(NC(=O)Nc3ccc(F)cc3)cc2C1=O`, the cytotoxicity call in experiment [1] and in experiment [2] was “inactive” throughout. In addition, the growth inhibition call in experiment [3] is “inactive”.
`C[C@@H]1CN([C@H](C)CO)S(=O)(=O)c2ccc(C#Cc3ccccc3)cc2O[C@@H]1CN(C)S(=O)(=O)c1ccccc1F`: the cytotoxicity call in experiment [1] and in experiment [2] was “inactive” each time. Moreover, the growth inhibition call in experiment [3] was “inactive”.
With `CCO/N=[N+](\[O-])N1CCCC1`, the cytotoxicity call in experiment [1] and in experiment [2] was “inactive” each time. In experiment [3], the growth inhibition call was “inactive”.
Turning to `C[C@H](CO)N1C[C@H](C)[C@H](CN(C)Cc2ccc(Oc3ccccc3)cc2)Oc2ccc(NC(=O)Nc3ccc4c(c3)OCO4)cc2C1=O`, the cytotoxicity call in experiment [1] and in experiment [2] was “inactive” each time. For the same compound, in experiment [3], the growth inhibition call was “inactive”.
On to `Cn1c(=O)cc(N2CCCC(N)C2)n(Cc2ccccc2C#N)c1=O.O=C(O)c1ccccc1` (centres undefined), for which the cytotoxicity call in experiment [1] was “inactive”. The cytotoxicity call in experiment [2] is “active”. Moreover, the growth inhibition call in experiment [3] is “inactive”.
Regarding `Cc1noc(C)c1NC(=O)N(C)C[C@H]1Oc2c(NS(=O)(=O)c3cn(C)cn3)cccc2C(=O)N([C@@H](C)CO)C[C@H]1C`, the cytotoxicity call in experiment [1] and in experiment [2] was “inactive” each time. Further, the growth inhibition call in experiment [3] was “inactive”.
As for `C[C@@H]1CCCCO[C@H](CN(C)C(=O)CCC(F)(F)F)[C@H](C)CN([C@@H](C)CO)C(=O)c2cc(NC(=O)Nc3ccc4c(c3)OCO4)ccc2O1`, the cytotoxicity call in experiment [1] and in experiment [2] was “inactive” throughout. The growth inhibition call in experiment [3] was “inactive”.
Take `Cc1cc2c(cc1N)n(C)c(=O)n2C`: the cytotoxicity call in experiment [1] and in experiment [2] was “inactive” in each case. The growth inhibition call in experiment [3] is “inactive”.
Turning to `Nc1cnc(Cl)nc1N`, the cytotoxicity call in experiment [1] and in experiment [2] was “inactive” throughout. In experiment [3], the growth inhibition call is “inactive”.
As for `O=C(C[C@H]1CC[C@H]2[C@@H](COC[C@H](O)CN2C(=O)c2ccccc2)O1)N1CCOCC1`, the cytotoxicity call in experiment [1] and in experiment [2] was “inactive” each time. Further, the growth inhibition call in experiment [3] was “inactive”.
For `CC(C)NC(=O)N(C)C[C@H]1Oc2ccc(NC(=O)Cc3ccccc3)cc2C(=O)N([C@H](C)CO)C[C@@H]1C`, the cytotoxicity call in experiment [1] and in experiment [2] was “inactive” in each case. Further, the growth inhibition call in experiment [3] was “inactive”.
With `C[C@@H]1CN([C@H](C)CO)C(=O)c2cc(NS(C)(=O)=O)ccc2O[C@@H](C)CCCCO[C@@H]1CN(C)S(=O)(=O)c1ccccc1`, the cytotoxicity call in experiment [1] and in experiment [2] was “inactive” each time. The growth inhibition call in experiment [3] was “inactive”.
For the compound `C[C@H](CO)N1C[C@H](C)[C@@H](CN(C)C(=O)Nc2ccc(C(F)(F)F)cc2)Oc2ccc(NC(=O)NC3CCCCC3)cc2CC1=O`, the cytotoxicity call in experiment [1] and in experiment [2] was “inactive” throughout. In experiment [3], the growth inhibition call is “inactive”.
As for `Cc1ccc(S(=O)(=O)Nc2ccc3c(c2)C(=O)N([C@@H](C)CO)C[C@@H](C)[C@@H](CN(C)C(=O)c2ccccc2)OCCCC[C@H](C)O3)cc1`, the cytotoxicity call in experiment [1] and in experiment [2] was “inactive” in each case. Further, the growth inhibition call in experiment [3] was “inactive”.
For `Cc1ncc(CO)c(CO)c1O.Cl`, the cytotoxicity call in experiment [1] and in experiment [2] was “inactive” in each case. Also, the growth inhibition call in experiment [3] was “inactive”.
For `C[C@@H]1CN([C@@H](C)CO)C(=O)c2cc(NS(=O)(=O)c3ccc(Cl)cc3)ccc2O[C@@H](C)CCCCO[C@@H]1CN(C)S(=O)(=O)c1cccs1`, the cytotoxicity call in experiment [1] and in experiment [2] was “inactive” throughout. In addition, in experiment [3], the growth inhibition call is “inactive”.
In the case of `CC(C)NC(=O)Nc1ccc2c(c1)C(=O)N([C@H](C)CO)C[C@@H](C)[C@@H](CN(C)Cc1ccc(C(F)(F)F)cc1)OCCCC[C@H](C)O2`, the cytotoxicity call in experiment [1] and in experiment [2] was “inactive” in each case. For the same compound, the growth inhibition call in experiment [3] is “inactive”.
Consider `C[C@H]1CN([C@@H](C)CO)C(=O)c2cc(NC(=O)Nc3ccc(C(F)(F)F)cc3)ccc2O[C@H]1CN(C)Cc1ccc(Oc2ccccc2)cc1`, for which the cytotoxicity call in experiment [1] and in experiment [2] was “active” each time. The growth inhibition call in experiment [3] was “inactive”.
As to `C[C@H]1CN([C@@H](C)CO)S(=O)(=O)c2ccc(C#CCN(C)C)cc2O[C@H]1CN(C)S(=O)(=O)c1cccc(F)c1`, the cytotoxicity call in experiment [1] and in experiment [2] was “inactive” throughout. The growth inhibition call in experiment [3] was “inactive”.
With `CCCNC(=O)Nc1ccc2c(c1)C(=O)N(C)C[C@@H](OC)[C@H](C)CN(C(=O)C1CCOCC1)[C@H](C)CO2`, the cytotoxicity call in experiment [1] and in experiment [2] was “inactive” throughout. The growth inhibition call in experiment [3] is “inactive”.
In the case of `C[C@H](N)CCP(=O)(O)O`, the cytotoxicity call in experiment [1] and in experiment [2] was “inactive” in each case. The growth inhibition call in experiment [3] is “inactive”.
Turning to `CC(C)COC(=O)CNc1n[nH]c(=O)[nH]c1=O`, the cytotoxicity call in experiment [1] and in experiment [2] was “inactive” in each case. In experiment [3], the growth inhibition call was “inactive”.
`Cc1cc(O)cc(=O)o1`: the cytotoxicity call in experiment [1] and in experiment [2] was “inactive” in each case. The growth inhibition call in experiment [3] was “inactive”.
Take `Cc1noc(C)c1S(=O)(=O)N(C)C[C@@H]1Oc2ccc(NC(=O)Cn3cnnn3)cc2CC(=O)N([C@H](C)CO)C[C@@H]1C`: the cytotoxicity call in experiment [1] and in experiment [2] was “inactive” in each case. Moreover, the growth inhibition call in experiment [3] was “inactive”.
In the case of `C[C@@H]1CN([C@@H](C)CO)C(=O)c2cc(-c3ccncc3)cnc2O[C@@H]1CN(C)S(=O)(=O)c1ccc(F)cc1`, the cytotoxicity call in experiment [1] and in experiment [2] was “inactive” each time. Further, the growth inhibition call in experiment [3] was “inactive”.
As for `NCCn1nc([C@H]2CCN(C(=O)c3csc4c3CCCC4)C2)c2nccnc21`, the cytotoxicity call in experiment [1] and in experiment [2] was “inactive” throughout. The growth inhibition call in experiment [3] was “inactive”.
In the case of `COc1ccc(S(N)(=O)=O)cc1OC`, the cytotoxicity call in experiment [1] and in experiment [2] was “inactive” throughout. In addition, the growth inhibition call in experiment [3] is “inactive”.
For `COc1ccc(NC(=O)N[C@@H]2CC[C@@H](CCNC(=O)CN3CCOCC3)O[C@H]2CO)cc1`, the cytotoxicity call in experiment [1] and in experiment [2] was “inactive” each time. Moreover, the growth inhibition call in experiment [3] was “inactive”.
With `C[C@@H]1CN([C@H](C)CO)S(=O)(=O)c2ccc(C#CC3(O)CCCC3)cc2O[C@H]1CN(C)C(=O)c1cccnc1`, the cytotoxicity call in experiment [1] and in experiment [2] was “inactive” each time. Besides, in experiment [3], the growth inhibition call is “inactive”.
Consider `C[C@@H]1CCCCO[C@H](CN(C)Cc2ccc(C(F)(F)F)cc2)[C@H](C)CN([C@H](C)CO)C(=O)c2cc(NC(=O)c3ccccc3)ccc2O1`, for which the cytotoxicity call in experiment [1] and in experiment [2] was “inactive” each time. For the same compound, in experiment [3], the growth inhibition call was “inactive”.
For `Cc1ccc(S(=O)(=O)N2CCOCC2)cc1NC(=O)CN1C(=O)CN(C)C1=O`, the cytotoxicity call in experiment [1] and in experiment [2] was “inactive” in each case. The growth inhibition call in experiment [3] is “inactive”.

These data come from the antibiotic and cytotoxicity screens of Wong et al. (2023).
